This is an account of results in the supplement of paper PMC11417369.

Some of the results follow.

The test system of this assay is PfSIP2 AP2 domain 1 (GST-tagged). Kind of assay: gcPBM binding intensity (ln(normalized median fluorescence intensity)); higher = stronger DNA binding. In outline: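 The binding buffer was 1× PBS containing 1% milk, 0.2 mg/ml BSA, 0.5% salmon testes DNA and 0.03% Triton X-100. In it, GST-tagged P. falciparum DNA-binding domains expressed in E. coli were applied for 1 h to an Agilent 4 × 180k array of primer-extended double-stranded 36-bp intergenic genomic probes plus negative controls. Binding intensity, read with Alexa488 anti-GST antibody and a 488 nm scan, is the highest Masliner-normalised natural-log median intensity across replicate spots of either probe orientation.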
Turning to “CACCATGTTAACAATACATGCATCACTATATAAATG [TGCATGCA_site36]”, the “gcPBM binding intensity (ln)” value was found to be 7.04.
Under “GTACACATATATATATATATATATATATATATATAT [CACACA_negctrl_site800]” stands 9.8; under “TTTTTTTTTTTTTTTTGTACTCATACATACTATTAT [XGTACX_site989]”, 7.23.
Under “TAATTTTCATGTTCATGTACTTAAATATAAGGTAAA [XGTACX_site3284]” stands 7.01; under “TGCCTTATTAAAAGAATTACACATATTTAATCGAAA [GTGCAC_negctrl_site153]”, 6.98; under “ATTCATAACAAAAAAAGTACTCAAAATAATAATAAA [XGTACX_site6079]”, 7.19.
Under “ATTCAATAAACGTATTGTACAAAAGAACGATATATT [XGTACX_site2533]” stands 7.05; under “TATTGGATCACACAAAAATGTATAAATAAATAGAAA [TGCATGCA_negctrl_site490]”, 6.75.
As for “ATCATAACTTGATACGCACACGTTATATAAATAAAA [CACACA_site4955]”, the “gcPBM binding intensity (ln)” value is 7.12.
With “TGAGAATAAAAAAAAGGGATTATTAGATTTCTCCTT [TGCATGCA_negctrl_site326]”, the “gcPBM binding intensity (ln)” value was 6.26.
The figure for “AAGACAAATTGTGACACACACAAAAAAAAAAAAAAA [CACACA_site3727]” is 6.95; for “AAAAAAATAAGGTGCACACAAAAAAAAAAAAAAAAA [CACACA_site812]” it is 12.4; for “GATTCATTTCGTAATACACACAACAAATATTTCAAA [CACACA_site1772]” it is 7.31.
Take “AATGTAAATAAGTGTACACATATATAATACATACAT [CACACA_site4938]”: the “gcPBM binding intensity (ln)” value came out at 7.47.
Under “TACCTTATATTATATACACACATATAATATAATATA [CACACA_site1328]” stands 7.19; under “GTCTCCTTTATTTTTGGTACAGATAAGATAAAAGGA [XGTACX_site1591]”, 7.32; under “GTGTTCATATATAGCCGTACATATGTCTTATGAACG [XGTACX_site5647]”, 7.34.
Under “ATTATCAAAAAAAAAAAAAAAAAAAAAAAAAAAAAA [CACACA_negctrl_site1118]” stands 7.07.
The figure for “TATAACATTATTTTGTGTACACATTCGGTTATATTA [XGTACX_site6310]” is 7.43; for “AATCAAAATATATCTACACACATTTAAGTAACCCAT [CACACA_site5846]” it is 6.94; for “ATATAGATCTATAATACACACTTATGAAATGTCTAA [CACACA_site6946]” it is 6.72.
Consider “TTGTTTCCGATGAAAGAAAGGAAATTATAATATATC [GTGCAC_negctrl_site516]”, for which the “gcPBM binding intensity (ln)” value was determined as 6.91.
The figure for “AGAAAAAACAAAAGAGAAATGAAAAAAAAAAAAAAA [XGTACX_negctrl_site482]” is 6.91.
The figure for TAAAATAATATTTATGTGCACATATAATTATTAATT is 8.71.
The figure for “TTTGTGCTTATCCTAACACACACAACATATAAGAAA [CACACA_site9091]” is 7.22; for “ATATATATTTTTATAACACACAATGATGTACATTAC [CACACA_site1076]” it is 7.2; for “TGTGTAGCTAGGGGGTTGCTAATTTTTGTTTTGACC [CACACA_negctrl_site634]” it is 7.38.
As for “TTATATATACCATAATGTACTCTATTATATAAAAAA [XGTACX_site7464]”, the “gcPBM binding intensity (ln)” value was determined as 7.18.
As for “GATTCCTTTAACCCTGCACACATACATACATTTATA [CACACA_site9308]”, the “gcPBM binding intensity (ln)” value was found to be 7.83.
On to “TATATTTCTTATTACATACACACATATACATATATG [CACACA_site3202]”, for which the “gcPBM binding intensity (ln)” value turned out to be 7.13.
The figure for “TAATAATATAATAATACACACTCATTATATATATAA [CACACA_site6045]” is 6.89; for “ATAGATGCATATTATACACACATATGTAAATACATT [CACACA_site4691]” it is 7.06; for “CCACTATATAAAATCACACATTTATATTATACATAT [CACACA_site4570]” it is 7.09.
Under “TTTATTTTAATTTATTGTACATTGTTATCAAGTGCA [XGTACX_site1110]” stands 7.15; under “TATTGGTAATGTAAATGTACATATAGATATTTACAT [XGTACX_site1922]”, 6.76.
Consider “ATAATAGTTAAATGTACACACTAACTACATGGAATA [CACACA_site5753]”, for which the “gcPBM binding intensity (ln)” value worked out at 7.1.
Under “AAAAAAAGAAATTAGGTGCATAGCATTAACCGATAA [GTGCAC_site9582]” stands 10.1.
Under “TTGAAGTTAATAAAAACTTTATACATGAAATTATTT [CACACA_negctrl_site684]” stands 6.66.
On to “ACAAAAAAAAAAAAAATACACACACATAAAAAAAAA [TGCATGCA_negctrl_site333]”, for which the “gcPBM binding intensity (ln)” value was determined as 6.96.
As for “ACAAAATATTTTTCTTCACACATCCATTCAACATTT [CACACA_site5886]”, the “gcPBM binding intensity (ln)” value amounted to 7.24.
As to “TATATATATATATATATTAATAATTAATATAAAAGA [XGTACX_negctrl_site32]”, the “gcPBM binding intensity (ln)” value came out at 9.16.
The figure for “AATCAAAACATTAAAAAGAAAAAATATATATATATA [CACACA_negctrl_site366]” is 9.72.
Consider “CCATTCAAATTTCGCACACACATACAAAAAAAAAAA [CACACA_site3093]”, for which the “gcPBM binding intensity (ln)” value stood at 7.63.
Turning to “TATAAATGATTAATTTGTACATATTTTACTTAATTG [XGTACX_site5271]”, the “gcPBM binding intensity (ln)” value turned out to be 6.73.
The figure for “TAAATAAATAAATATATATATATATATATATATATA [XGTACX_negctrl_site70]” is 9.63.
The figure for “TTGATGATATCATTTTGTACTTATACGTATTTAAAA [XGTACX_site148]” is 6.97.
Under “CACATAAAAAAATAAACACACATATGTATATAAATA [CACACA_site7483]” stands 6.95.
In the case of “CTTTAAATGATGTAAACACACACATATACATTATTA [CACACA_site9035]”, the “gcPBM binding intensity (ln)” value came to 7.15.
Regarding “AATGGAAAAATAGGCACACACACATAAATACAGATA [CACACA_site4844]”, the “gcPBM binding intensity (ln)” value came out at 7.1.
For the sequence “TAAAAAAAAATAAAAAGTACATATATATATATATAT [XGTACX_site1155]”, the “gcPBM binding intensity (ln)” value was determined as 9.34.
Under “AATATGAAACAAGACGCACACATAAATAAATAAATA [CACACA_site326]” stands 7.15; under “AGTGCTACTCATGATTGAATAGAGGAAAAGGCGGTG [GTGCAC_negctrl_site49]”, 7.24; under “TTGAAAAATCAGCACACACACAAATACATACATATT [CACACA_site7505]”, 7.03.
For the sequence “ACATATGGCACATATGTACACACGTATAGATAATAT [CACACA_site2024]”, the “gcPBM binding intensity (ln)” value amounted to 7.19.
Consider “CTAAAAAAATAATAAAGTACACAAACGAATATATAA [XGTACX_site668]”, for which the “gcPBM binding intensity (ln)” value was 7.48.
Regarding “CTTTTTTGGTACATCACACATTTTTACATTCCCTTT [CACACA_site4957]”, the “gcPBM binding intensity (ln)” value was determined as 7.3.
“TTTTTTTTTTTTTTTGCACACTATATTTAATATAAG [CACACA_site2444]”: the “gcPBM binding intensity (ln)” value amounted to 7.73.
Under “CCATATTTAATAAAATGTACTCATTCTTTTATTTTA [XGTACX_site7802]” stands 7.11.
Under “TTAATAGTGGAAATATGTACATAATTTTGGTCTTTT [XGTACX_site1664]” stands 6.86; under “CTGTTCAAAATATGAACACACACATATATATATATA [CACACA_site8638]”, 9.04; under “TAATTACACTTTAAAAGTACATATATAATAACATTA [XGTACX_site379]”, 7.04.
In the case of “CAAACAATTAAACAAACACACATATACATGTATATA [CACACA_site2060]”, the “gcPBM binding intensity (ln)” value is 6.87.
Take “AAAATAAGCCATATACGTACATACATATATAAATAT [XGTACX_site4197]”: the “gcPBM binding intensity (ln)” value came out at 7.46.
As to “TTTTTTATGTTCAATTGTACATATACATATATATAT [XGTACX_site6013]”, the “gcPBM binding intensity (ln)” value turned out to be 8.54.
In the case of “TTCATATTTCATATATGTACTTATGTTCAATATAGT [XGTACX_site3811]”, the “gcPBM binding intensity (ln)” value was 7.13.
Consider “GATTTAATAGATACGAGTACAGAAATTGTATACATA [XGTACX_site7563]”, for which the “gcPBM binding intensity (ln)” value was 7.21.
Under “TACATATTTTTCTTTTCACACATGGAAAAAAAAGGT [CACACA_site5146]” stands 7.07.
Turning to “TATTAATTCATTTTTTTTTTTTTTTTTTTTTTTTTT [CACACA_negctrl_site1215]”, the “gcPBM binding intensity (ln)” value was 8.55.
In the case of “ATATATATATATATATATATATATATATATAAGTGG [XGTACX_negctrl_site90]”, the “gcPBM binding intensity (ln)” value stood at 9.1.
Under “CCCTTAATTTAAAACACACAAACAAATAAGTTAGTT [CACACA_site3793]” stands 6.97; under “TATTTTTTTTTTCACTGTACATACAACAACAAATAT [XGTACX_site8835]”, 7.27.
The figure for “AATATATTTATTATAACACACACATATATATATTAT [CACACA_site8264]” is 7.1; for “TTATATGTTTTGTGTACACAATTTATTAAATTAATA [CACACA_site5645]” it is 7.53.
The figure for “ATAGGAAAAAGTATTGGTACACATACATATACGTTA [XGTACX_site5819]” is 6.92.
In the case of “TATATATTTTTTTCATGTACATATAAATTAATTAAA [XGTACX_site8680]”, the “gcPBM binding intensity (ln)” value was 7.3.
The figure for “ACACAAAAAATTAAGTGTACTCATCAAGAAAAAAAA [XGTACX_site3456]” is 7.38; for “ATAAAATACCCTGATCTATTACATATTATATTCTGC [GTGCAC_negctrl_site311]” it is 6.71; for “TATATTATATATATATGTACATATTATTATATCTAA [XGTACX_site3835]” it is 7.31.
On to “TTTTGTATTTTTCACACACACATAAGTAAACAATAA [CACACA_site1899]”, for which the “gcPBM binding intensity (ln)” value was 7.54.
With “TAAATGAAAATATGTACACACTTGAAAATTTTTATG [CACACA_site5599]”, the “gcPBM binding intensity (ln)” value amounted to 7.11.
The figure for “AATCTTTTTAAATCTTGATTAATTTCGGGTATATAT [TGCATGCA_negctrl_site107]” is 6.82.
With “TACAAGAACAAAAAATGTACGAAATAATTACAAATA [XGTACX_site5824]”, the “gcPBM binding intensity (ln)” value was 6.73.
On to “AAATTAAATATTATATTAATTCTTAAATTTTTTTTT [CACACA_negctrl_site439]”, for which the “gcPBM binding intensity (ln)” value was determined as 6.55.
Turning to “ATACAATAATATAAATGTACAAATTATATCTTCATT [XGTACX_site8994]”, the “gcPBM binding intensity (ln)” value was 6.85.
For “AAACATATGGTATTTAAACACACAAAAAAGAAAGAA [CACACA_site8239]”, the “gcPBM binding intensity (ln)” value stood at 7.2.
Under “ATGTTGTGGATATATACACACATACATATTTATATA [CACACA_site6857]” stands 7.05; under “AAAAAAAAAAAAAAAACACACAAACATCAAATTACT [CACACA_site6950]”, 7.55.
